# Measured values taken from the supplement of paper PMC3334620.
# Over roughly 33,000 sequences, “E-score (-0.5 to 0.5)” has its median near -0.013; the highest 2% begin near 0.3. The list shows a part of the results.
# Molecular target: T1, Msn1 (UniProt P22148)
# T1 sequence: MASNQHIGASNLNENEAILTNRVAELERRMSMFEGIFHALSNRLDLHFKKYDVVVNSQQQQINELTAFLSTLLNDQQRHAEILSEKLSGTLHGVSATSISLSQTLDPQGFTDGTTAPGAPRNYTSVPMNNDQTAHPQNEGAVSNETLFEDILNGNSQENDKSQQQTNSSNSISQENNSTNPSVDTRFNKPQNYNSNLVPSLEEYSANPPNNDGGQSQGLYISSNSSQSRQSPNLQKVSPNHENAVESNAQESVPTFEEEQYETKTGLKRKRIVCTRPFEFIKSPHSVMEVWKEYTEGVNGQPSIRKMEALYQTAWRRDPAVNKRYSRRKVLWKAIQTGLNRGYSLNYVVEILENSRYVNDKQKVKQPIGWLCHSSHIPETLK
# Assay: PBM E-score (8-mer binding enrichment) (E-score (-0.5 to 0.5)); higher = stronger / more preferred TF binding; most listed sequences are background and not binding sites
# Conditions: protein concentration: 200 nM; construct: GST-full length
# Method: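 Universal 'all 10-mer' protein binding microarrays (Agilent AMADID 015681) probed with GST-tagged S. cerevisiae TFs (full-length or DBD) made by in vitro transcription/translation (PURExpress), about 100-200 nM. Bound TF was detected with fluorescent anti-GST. Each ungapped 8-mer (which stands for itself and its reverse complement) is scored by the PBM enrichment score (E-score), a modified Wilcoxon-Mann-Whitney statistic from -0.5 to +0.5, computed with the Universal PBM Analysis Suite. Scale: above 0.35 generally sequence-specific binding.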
row,Sequence,PBM E-score
1,GTATGACA,0.294
2,ATGAGAGC,-0.216
3,GTAACATA,0.0742
4,CCACTATC,-0.0754
5,GTTTGCTA,0.0867
6,CGAACTAG,-0.038
7,CAGTTTCA,-0.22
8,CGTCTATC,-0.0463
9,CTTGTAGA,-0.152
10,GTACCCAC,-0.13
11,CATAGTAC,-0.0797
12,GGTTCCGA,0.15
13,GAACCCTC,-0.12
14,ATCCGAAG,0.0243
15,AGGCGCAA,0.0394
16,TTCCGCAA,0.156
17,ATATCCCG,0.216
18,AGACCGCC,-0.214
19,ATCACCAA,-0.0626
20,CCCGGACG,-0.156
21,ATCCCACC,-0.128
22,CGCATTTA,0.193

row,Sequence,PBM E-score
1,CCCAGAGG,-0.306
2,CGGTGGGC,-0.214
3,CAACCTTG,-0.0125
4,AGCAGTGC,-0.207
5,TTGCGCAA,0.209
6,TAGGCGGA,0.122
7,TAGGGTCA,-0.0503
8,ACATCGAC,0.131
9,AATTTACT,0.2
10,CTCAGATA,0.154
11,AACTTCGA,0.0961
12,AAGTATGT,0.102
13,CTTATTGC,-0.199
14,CAGGCGCA,0.0204
15,AATAACAT,0.0555
16,AGAACGTG,-0.0907
17,AATCTGTA,0.131
18,ATCACATC,-0.0349
19,GTCCTACA,0.385
20,AGCATAAG,0.0713
21,ACTTGATC,0.178
22,GGACGTTA,0.0129

row,Sequence,PBM E-score
1,AGATCTGC,0.0313
2,AGACTGCT,-0.0486
3,GCGTTCCC,-0.183
4,AAACATCT,0.151
5,GGTATCCA,-0.044
6,AGTAATCG,0.0169
7,AACTAGCA,0.0468
8,GTTGGTCA,0.151
9,ACATCCTG,0.192
10,AGCATTGC,-0.0447
11,CGACCGGC,-0.0696
12,CGGCAAAG,-0.0995
13,GGGTACAA,0.198
14,ACGTTTCA,0.111
15,ACCATCAC,-0.114
16,GCGAACTA,0.0518
17,GACTACCC,-0.138
18,AATAGGCG,0.118
19,AAAATCCA,0.0954
20,AACTCTGT,0.00473
21,CGCCTACC,-0.113
22,AGACGTGC,0.154

row,Sequence,PBM E-score
1,AGCCTGTA,-0.0734
2,GCGTAAGA,0.0196
3,AACGGAGG,-0.0317
4,AGTGATTC,-0.0424
5,ACGGTAAT,-0.178
6,ACATCAGA,0.115
7,GATGCATC,0.105
8,AAAGGCCC,-0.106
9,AGCATTCA,-0.23
10,ATCCATAA,0.124
11,GACTAATC,0.121
12,GTCCCAAC,0.283
13,GTAGAGTA,0.04
14,GGTCACAA,-0.0198
15,CAAGGTGC,-0.0203
16,ACTAATTC,0.214
17,CCCCTGGC,-0.32
18,CGAGATGA,-0.0953
19,CAGTGAAG,0.0282
20,AACCTGGC,-0.174
